The values that follow come from patent EP4703390A1 (Chia Tai Tianqing Pharmaceutical Group Co., Ltd., dated 2026).

This assay addresses T1, cynomolgus c-Met-His (SinoBiological, Cat. No. 90304-C08H) (cynomolgus, UniProt A0A2K5UM36 25-932).
T1 construct: Bought protein; also called cynomolgus c-Met protein
Description: SPR (Biacore), antibody captured on anti-hIgG Fc chip, c-Met-His as analyte, 1:1 fit.

B1: 1B-3B11-Fc (Fc fusion)
chain: QVQLVESGGGSVQAGGSLRLSCVVSGYTYSSVAWFRQTPGKEREGVAVINPGGDNTDYTYAVKGRFTISRDSAKSTVFLQMNNLESEDTAMYYCAAGRTFGGTWMDRNKWKYWGQGTLVTVSSEPKIPQPQPKPQPQPQPQPKPQPKPEPEC[omitted - human IgG1 Fc with P228K (EU numbers)]
notes: also called anti-human c-Met VHH-Fc chimeric antibody 1B-3B11-Fc
Usually Kd stands for a measure of binding affinity in units of concentration. The low end stands for higher affinity, the high end for lower affinity. In the case of B1, the Kd was 664 pM.

B2: 3B-1C7-Fc (Fc fusion)
chain: QVQLVESGGDSVQAGGSLRLSCIASGFTFDGTTMGWYRQAPGDECELVSDISSDGNTYYSDSVKGRFTISQGNAKNTVYLQMNSLTPEDTAVYYCAAAEFRLLLRPLCRQDDYGYWGQGTLVTVSSEPKIPQPQPKPQPQPQPQPKPQPKPEPEC[omitted - human IgG1 Fc with P228K (EU numbers)]
notes: also called anti-human c-Met VHH-Fc chimeric antibody 3B-1C7-Fc
As to B2, the Kd worked out at 254 pM.

B3: 1B-1B2-Fc (Fc fusion)
chain: EVQLVESGGGSVQAGGSLRLSCTASGFTFDMGWYRQAPGDECELVSSISSDGNSDYLDSVKGRFTISQDNAKNTVYLQMNSLKPEDTAVYYCAANGAGHLVLRPLCGSNAVDAWGQGTLVTVSSEPKIPQPQPKPQPQPQPQPKPQPKPEPEC[omitted - human IgG1 Fc with P228K (EU numbers)]
notes: also called anti-human c-Met VHH-Fc chimeric antibody 1B-1B2-Fc
B3 registered a Kd of 2740 pM.

B4: 1B-1B6-Fc (Fc fusion)
chain: QVQLVESGGDSVQAGGSLRLSCAASAHAYSSGCMGWFRQAPGKGREGVATIYTRNDFTYYSDSVKGRFTISRDDAKNTVYLQVNSLKAEDTAMYYCAAGSPFRYAGAWNVCGLKEEDYNYWGQGTLVTVSSEPKIPQPQPKPQPQPQPQPKPQPKPEPEC[omitted - human IgG1 Fc with P228K (EU numbers)]
notes: also called anti-human c-Met VHH-Fc chimeric antibody 1B-1B6-Fc
The molecule B4 returned a Kd of 6850 pM.

B5: 1B-1C7-Fc (Fc fusion)
chain: QVQLVESGGGLVQPGGSLRLSCAASGYSYSANCVGWFYQAPGKEREGVAAINTGGETATYADFVKGRFTISQDYAKNTVYLQMNSLKSEDTGMYYCAAVGTRKYWDECSLSQHAYKNWGQGTLVTVSSEPKIPQPQPKPQPQPQPQPKPQPKPEPEC[omitted - human IgG1 Fc with P228K (EU numbers)]
notes: also called anti-human c-Met VHH-Fc chimeric antibody 1B-1C7-Fc
In turn, B5 yielded a Kd of 188 pM.
